# The list shows a part of the results.
# B1: TREM-2 (Mus musculus), Q99NH8 (protein)
# chain: MGPLHQFLLLLITALSQALNTTVLQGMAGQSLRVSCTYDALKHWGRRKAWCRQLGEEGPCQRVVSTHGVWLLAFLKKRNGSTVIADDTLAGTVTITLKNLQAGDAGLYQCQSLRGREAEVLQKVLVEVLEDPLDDQDAGDLWVPEESSSFEGAQVEHSTSRNQETSFPPTSILLLLACVLLSKFLAASILWAVARGRQKPGTPVVRGLDCGQDAGHQLQILTGPGGT
# What was measured:
# Assay in all cases: glycan array binding signal (z-score within array); higher = stronger binding
# Conditions in all cases: glycan notation: IUPAC condensed, linker removed
# Fuc(a1-2)Gal = molecular target: Fuc(a1-2)Gal
# Procedure, shortened: (§1)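 The binding signal is a Z-score computed within each array and averaged over linkers. Arrays of the same protein sequence at different concentrations or buffers were also averaged together. Data originate from 3228 arrays in the Consortium for Functional Glycomics database, kept only where the protein sequence was available.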
# Fuc(a1-2)Gal(b1-3)GalNAc = molecular target: Fuc(a1-2)Gal(b1-3)GalNAc
# Procedure, shortened: as §1
# [1] = molecular target: Fuc(a1-2)Gal(b1-3)GalNAc(b1-3)Gal
# Procedure, shortened: as §1
# [2] = molecular target: Fuc(a1-2)Gal(b1-3)GalNAc(b1-3)Gal(a1-4)Gal(b1-4)Glc
# Procedure, shortened: as §1
# [3] = molecular target: Fuc(a1-2)Gal(b1-3)GalNAc(b1-4)[Neu5Ac(a2-3)]Gal(b1-4)Glc
# Procedure, shortened: as §1
# Fuc(a1-2)Gal(b1-3)GlcNAc = molecular target: Fuc(a1-2)Gal(b1-3)GlcNAc
# Procedure, shortened: as §1
# [4] = molecular target: Fuc(a1-2)Gal(b1-3)GlcNAc(b1-3)Gal(b1-4)Glc
# Procedure, shortened: as §1
# [5] = molecular target: Fuc(a1-2)Gal(b1-3)[Fuc(a1-4)]GlcNAc
# Procedure, shortened: as §1
# Fuc(a1-2)Gal(b1-4)Glc = molecular target: Fuc(a1-2)Gal(b1-4)Glc
# Procedure, shortened: as §1
# Fuc(a1-2)Gal(b1-4)GlcNAc = molecular target: Fuc(a1-2)Gal(b1-4)GlcNAc
# Procedure, shortened: as §1
# [6] = molecular target: Fuc(a1-2)Gal(b1-4)GlcNAc(b1-3)Gal(b1-4)GlcNAc
# Procedure, shortened: as §1
# [7] = molecular target: Fuc(a1-2)Gal(b1-4)GlcNAc(b1-3)Gal(b1-4)GlcNAc(b1-3)Gal(b1-4)GlcNAc
# Procedure, shortened: as §1
# [8] = molecular target: Fuc(a1-2)Gal(b1-4)[Fuc(a1-3)]GlcNAc
# Procedure, shortened: as §1
# [9] = molecular target: Fuc(a1-2)Gal(b1-4)[Fuc(a1-3)]GlcNAc(b1-3)Gal(b1-4)[Fuc(a1-3)]GlcNAc
# Procedure, shortened: as §1
# [10] = molecular target: Fuc(a1-2)Gal(b1-4)[Fuc(a1-3)]GlcNAc(b1-3)Gal(b1-4)[Fuc(a1-3)]GlcNAc(b1-3)Gal(b1-4)[Fuc(a1-3)]GlcNAc
# Procedure, shortened: as §1
# Fuc(a1-2)GlcNAc = molecular target: Fuc(a1-2)GlcNAc
# Procedure, shortened: as §1
# Fuc(a1-2)[Gal(a1-3)]Gal = molecular target: Fuc(a1-2)[Gal(a1-3)]Gal
# Procedure, shortened: as §1
# [11] = molecular target: Fuc(a1-2)[Gal(a1-3)]Gal(b1-3)GlcNAc
# Procedure, shortened: as §1
# [12] = molecular target: Fuc(a1-2)[Gal(a1-3)]Gal(b1-4)Glc
# Procedure, shortened: as §1
# [13] = molecular target: Fuc(a1-2)[Gal(a1-3)]Gal(b1-4)GlcNAc
# Procedure, shortened: as §1
# [14] = molecular target: Fuc(a1-2)[Gal(a1-3)]Gal(b1-4)[Fuc(a1-3)]GlcNAc
# Procedure, shortened: as §1
# [15] = molecular target: Fuc(a1-2)[Gal(a1-4)]Gal(b1-4)GlcNAc
# Procedure, shortened: as §1
# [16] = molecular target: Fuc(a1-2)[GalNAc(a1-3)]Gal
# Procedure, shortened: as §1
# [17] = molecular target: Fuc(a1-2)[GalNAc(a1-3)]Gal(b1-3)GlcNAc
# Procedure, shortened: as §1
# [18] = molecular target: Fuc(a1-2)[GalNAc(a1-3)]Gal(b1-4)Glc
# Procedure, shortened: as §1
# [19] = molecular target: Fuc(a1-2)[GalNAc(a1-3)]Gal(b1-4)GlcNAc
# Procedure, shortened: as §1
# [20] = molecular target: Fuc(a1-2)[GalNAc(a1-3)]Gal(b1-4)[Fuc(a1-3)]GlcNAc
# Procedure, shortened: as §1
# [21] = molecular target: Fuc(a1-2)[GalNAc(a1-4)]Gal(b1-4)GlcNAc
# Procedure, shortened: as §1
# [22] = molecular target: Fuc(a1-2)[GalNAc(b1-3)]Gal
# Procedure, shortened: as §1
# Fuc(a1-3)GlcNAc = molecular target: Fuc(a1-3)GlcNAc
# Procedure, shortened: as §1
# [23] = molecular target: Fuc(a1-3)[Gal(b1-4)]GlcNAc
# Procedure, shortened: as §1
# [24] = molecular target: Fuc(a1-3)[Gal(b1-4)]GlcNAc(b1-4)Gal(b1-4)[Fuc(a1-3)]GlcNAc
# Procedure, shortened: as §1
# [25] = molecular target: Fuc(a1-3)[Gal(b1-4)]GlcNAc(b1-4)Gal(b1-4)[Fuc(a1-3)]GlcNAc(b1-4)Gal(b1-4)[Fuc(a1-3)]GlcNAc
# Procedure, shortened: as §1
# [26] = molecular target: Fuc(a1-3)[Gal3S(b1-4)]GlcNAc
# Procedure, shortened: as §1
# [27] = molecular target: Fuc(a1-3)[GalNAc(b1-4)]GlcNAc
# Procedure, shortened: as §1
# Fuc(a1-4)GlcNAc = molecular target: Fuc(a1-4)GlcNAc
# Procedure, shortened: as §1
# Fuc(b1-3)GlcNAc = molecular target: Fuc(b1-3)GlcNAc
# Procedure, shortened: as §1
# Gal(a1-2)Gal = molecular target: Gal(a1-2)Gal
# Procedure, shortened: as §1
# Gal(a1-3)Gal = molecular target: Gal(a1-3)Gal
# Procedure, shortened: as §1
# Gal(a1-3)Gal(b1-3)GlcNAc = molecular target: Gal(a1-3)Gal(b1-3)GlcNAc
# Procedure, shortened: as §1
# Gal(a1-3)Gal(b1-4)Glc = molecular target: Gal(a1-3)Gal(b1-4)Glc
# Procedure, shortened: as §1
# Gal(a1-3)Gal(b1-4)GlcNAc = molecular target: Gal(a1-3)Gal(b1-4)GlcNAc
# Procedure, shortened: as §1
# [28] = molecular target: Gal(a1-3)Gal(b1-4)[Fuc(a1-3)]GlcNAc
# Procedure, shortened: as §1
# Gal(a1-3)GalNAc = molecular target: Gal(a1-3)GalNAc
# Procedure, shortened: as §1
# [29] = molecular target: Gal(a1-3)[Gal(a1-4)]Gal(b1-4)GlcNAc
# Procedure, shortened: as §1
binder,measurement,setting,value
B1,glycan array binding signal (z-score),Fuc(a1-2)Gal,-0.4
same,glycan array binding signal (z-score),Fuc(a1-2)Gal(b1-3)GalNAc,-0.371
same,glycan array binding signal (z-score),[1],-0.213
same,glycan array binding signal (z-score),[2],-0.247
same,glycan array binding signal (z-score),[3],-0.329
same,glycan array binding signal (z-score),Fuc(a1-2)Gal(b1-3)GlcNAc,-0.394
same,glycan array binding signal (z-score),[4],-0.355
same,glycan array binding signal (z-score),[5],-0.376
same,glycan array binding signal (z-score),Fuc(a1-2)Gal(b1-4)Glc,-0.36
same,glycan array binding signal (z-score),Fuc(a1-2)Gal(b1-4)GlcNAc,-0.407
same,glycan array binding signal (z-score),[6],-0.354
same,glycan array binding signal (z-score),[7],-0.287
same,glycan array binding signal (z-score),[8],-0.39
same,glycan array binding signal (z-score),[9],-0.292
same,glycan array binding signal (z-score),[10],-0.286
same,glycan array binding signal (z-score),Fuc(a1-2)GlcNAc,-0.471
same,glycan array binding signal (z-score),Fuc(a1-2)[Gal(a1-3)]Gal,-0.404
same,glycan array binding signal (z-score),[11],-0.349
same,glycan array binding signal (z-score),[12],-0.308
same,glycan array binding signal (z-score),[13],-0.348
same,glycan array binding signal (z-score),[14],-0.239
same,glycan array binding signal (z-score),[15],-0.361
same,glycan array binding signal (z-score),[16],-0.382
same,glycan array binding signal (z-score),[17],-0.37
same,glycan array binding signal (z-score),[18],-0.292
same,glycan array binding signal (z-score),[19],-0.376
same,glycan array binding signal (z-score),[20],-0.339
same,glycan array binding signal (z-score),[21],-0.425
same,glycan array binding signal (z-score),[22],-0.106
same,glycan array binding signal (z-score),Fuc(a1-3)GlcNAc,-0.416
same,glycan array binding signal (z-score),[23],-0.375
same,glycan array binding signal (z-score),[24],-0.081
same,glycan array binding signal (z-score),[25],-0.306
same,glycan array binding signal (z-score),[26],-0.356
same,glycan array binding signal (z-score),[27],-0.397
same,glycan array binding signal (z-score),Fuc(a1-4)GlcNAc,-0.413
same,glycan array binding signal (z-score),Fuc(b1-3)GlcNAc,-0.402
same,glycan array binding signal (z-score),Gal(a1-2)Gal,-0.324
same,glycan array binding signal (z-score),Gal(a1-3)Gal,-0.298
same,glycan array binding signal (z-score),Gal(a1-3)Gal(b1-3)GlcNAc,-0.388
same,glycan array binding signal (z-score),Gal(a1-3)Gal(b1-4)Glc,-0.38
same,glycan array binding signal (z-score),Gal(a1-3)Gal(b1-4)GlcNAc,-0.304
same,glycan array binding signal (z-score),[28],-0.303
same,glycan array binding signal (z-score),Gal(a1-3)GalNAc,-0.394
same,glycan array binding signal (z-score),[29],-0.376

# From the supplement of paper PMC8728848
